Results reported in patent US20250051434A1 (Merck Sharp & Dohme, published 2025).
Numbering of substitutions follows the chain as printed.

B1: IL-12-Fc-18 (Fc fusion)
chain 1: TPDPGMFPCLHHSQNLLRAVSNMLQKARQTLEFYPCTSEEIDHEDITKDKTSTVEACLPLELTKNESCLNSRETSFITNGSCLASRKTSFMMALCLSSIYEDLKMYQVEFKTMNAKLLMDPKRQIFLDQNMLAVIDELMQALNFNSETVPQKSSLEEPDFSKTKIKLCILLHAFRIRAVTIDRVMSYLNASGGGGSGGGGSGGGGS[skipping human IgG1 Fc with L234A L235A D265S S354C T366W (EU numbers)]
chain 2: IWELKKDVYVVELDWYPDAPGEMVVLTCDTPEEDGITWTLDQSSEVLGSGKTLTIQVKEFGDAGQYTCHKGGEVLSHSLLLLHKKEDGIWSTDILKDQKEPKNKTFLRCEAKNYSGRFTCWWLTTISTDLTFSVKSSRGSSDPQGVTCGAATLSAERVRGDNKEYEYSVECQEDSACPAAEESLPIEVMVDAVHKLKYENYTSSFFIRDIIKPDPPKNLQLKPLKNSRQVEVSWEYPDTWSTPHSYFSLTFCVQVQGKSKREKKDRVFTDKTSATVICRKNASISVRAQDRYYSSSWSEWASVPCSGGGGDKTHTCPPCPAPEAAGGPSVFLFPPKPKDTLMISRTPEVTCVVVSVSHEDPEVKFNWYVDGVEVHNAKTKPREEQYNSTYRVVSVLTVLHQDWLNGKEYKCKVSNKALPAPIEKTISKAKGQPREPQVCTLPPSRDELTKNQVSLSCAVKGFYPSDIAVEWESNGQPENNYKTTPPVLDSDGSFFLVSKLTVDKSRWQQGNVFSCSVMHEALHNHYTQKSLSLSPGK
B2: IL-12-Fc-19 (Fc fusion)
chain 1: B1 chain 1 with S161T
chain 2: B1 chain 2

Key:
Test in all cases: cell-based or functional assay
[1] = target: T1, human IL-12 receptor (IL-12R) (human, UniProt P42701 24-662; Q99665 24-862)
[2] = target: rhesus monkey IL-12 receptor (rhesus monkey)
[3] = target: T1, human IL-12 receptor (IL-12R); remark: listed apart in the source
T1 sequence (Q99665 24-862, chain 2 of 2, other chains not shown): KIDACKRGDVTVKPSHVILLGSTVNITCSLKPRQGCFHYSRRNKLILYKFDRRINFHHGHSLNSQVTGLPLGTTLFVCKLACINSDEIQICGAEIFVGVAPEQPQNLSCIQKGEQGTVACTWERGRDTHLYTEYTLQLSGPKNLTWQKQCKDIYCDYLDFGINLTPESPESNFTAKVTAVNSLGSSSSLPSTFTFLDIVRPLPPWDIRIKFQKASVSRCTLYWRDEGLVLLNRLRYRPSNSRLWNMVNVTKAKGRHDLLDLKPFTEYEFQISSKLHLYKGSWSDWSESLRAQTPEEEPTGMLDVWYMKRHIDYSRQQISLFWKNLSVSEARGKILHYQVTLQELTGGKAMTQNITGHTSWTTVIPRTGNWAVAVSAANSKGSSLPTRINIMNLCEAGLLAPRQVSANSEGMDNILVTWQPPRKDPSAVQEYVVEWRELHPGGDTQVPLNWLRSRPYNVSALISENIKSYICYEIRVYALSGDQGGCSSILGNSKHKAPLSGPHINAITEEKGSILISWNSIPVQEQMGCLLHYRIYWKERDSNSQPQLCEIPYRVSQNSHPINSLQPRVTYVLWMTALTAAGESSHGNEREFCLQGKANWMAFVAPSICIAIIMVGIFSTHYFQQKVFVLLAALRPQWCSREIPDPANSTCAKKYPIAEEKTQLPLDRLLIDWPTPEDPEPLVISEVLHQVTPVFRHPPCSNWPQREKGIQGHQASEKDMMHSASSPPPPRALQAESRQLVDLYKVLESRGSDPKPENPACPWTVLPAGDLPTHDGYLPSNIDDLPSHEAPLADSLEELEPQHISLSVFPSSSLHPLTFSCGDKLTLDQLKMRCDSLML

[4] = target: T1, human IL-12 receptor (IL-12R); remark: listed apart in the source

| Binder | Mean Fold Reduction (potency vs IL-12 WT by EC50; HEK-Blue IL-12 STAT4/SEAP reporter) [1] | Rhesus PBMC Median EC50 values (ng/ml); IFNγ release from activated rhesus PBMC in vitro (n = 10) [2] | HEK Reporter Median EC50 values (ng/mL) (n = 3) [3] | Human PBMC Median EC50 values (ng/ml); IFNγ release from activated human PBMC in vitro (n = 8) [3] | HEK-Blue IL-12 cells potency assay (FIG. 4): fold potency reduction vs wild-type [4] |
| --- | --- | --- | --- | --- | --- |
| B1 | 17 fold | 87 ng/mL | 35 ng/mL | 33 ng/mL | 30 fold |
| B2 | 49 fold | 365 ng/mL | 198 ng/mL | 178 ng/mL | 200 fold |
